Laboratory results from the supplement of paper PMC10338343.
± gives the standard deviation. Over roughly 6,600 sequences, “pre-steady-state target cleavage rate” has its median near 0.07; the highest 2% begin near 0.72. The list shows a part of the results, in another mix than the full data.

system: MIWI (PIWIL1) piRISC loaded with Kctd7 piRNA (30 nt); assay: pre-steady-state target cleavage rate (min^-1); MIWI and MILI are mouse PIWI proteins and EfPiwi is from a freshwater sponge; tags in brackets are library labels; higher = faster piRNA-guided slicing of the target; conditions: guide: Kctd7 piRNA 5'p-UGUUAAUCUCUCAGAGAAGGUGACAGUGAU; auxiliary factor: 500 nM mouse GTSF1
Summary of the method: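 In this Cleave-'n-Seq assay, uncleaved targets were sequenced and normalised to depth and to weakly complementary targets. They came from a transcribed, DNA-blocked target RNA library […] mixed with 1 nM active affinity-purified piRISC carrying one synthetic guide, with or without 500 nM GTSF1 partner protein, in HEPES–potassium acetate buffer at 33 °C for 0–8 or 0–960 min. After three trials were pooled and k3 was capped at 0.0001 min^-1, the pre-steady-state cleavage rate was obtained from a burst-and-steady-state fit.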
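Note: 1 nM active piRISC with 0.1 nM target library at 33 °C single turnover.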

Row | Sequence | pre-steady-state target cleavage rate
1 | UAGACUGUCACCUUCACUGACAGAUUAACA | 0.235 ± 0.023
2 | UAGUGACAGACCUUCUCUGAGAGAUUUUCA | 0.0186 ± 0.0066
3 | UAGACUGUCACCUUCUCUGAGAGAUCUAACA | 0.245 ± 0.034
4 | UAGUGACUGACCUUCUCUGAGACAUUAACA | 0.025 ± 0.0064
5 | UAGACUGUCACCUUCUCUCAGAGAUAAACA | 0.0545 ± 0.0077
6 | UAGUGACACACCUUCUCUGAGUGAUUAACA | 0.0318 ± 0.0051
7 | UACACUGUCACCUUCUCUGAGGAUUAACA | 0.113 ± 0.042
8 | UAGUCUGUCACCAACUCUGAGAGAUUAUGA | 0.0033 ± 0.0031
9 | UUCACUGUCACCUUCUGUCAGAGAUUAACA | 0.0135 ± 0.0046
10 | UAGUCUGUCACCUUCUCUGAGAGUAUAUGA | 0.0111 ± 0.0053
11 | UAGUCUGUCACCUUCUGUGAGACAUUAACA | 0.141 ± 0.02
12 | UACACCUGUCACCUUCUCUGAGAGAUUAACA | 0.79 ± 0.051
13 | UAGACGUGUCACCUUCUCUGAGAGAUUAACA | 0.649 ± 0.039
14 | UAGUGACAGUGCUUCUCUGAGAGAUUAUCA | 0.0119 ± 0.0035
15 | UAGUGACUCACCUUCCCUGAGAGAUUAACA | 0.179 ± 0.033
16 | UAGUGACUCACCAUCUCUGAGACAUUAACA | 0.0411 ± 0.005
17 | UACACUGUGACCUUCUCUGAGAGAUUAUGA | 0.0523 ± 0.012
18 | UUCACUGUCACCUUUCUGAGAGAUUAACA | 0.506 ± 0.026
19 | UAGUGUGUCACCUUGUCUGAGAGAUUAAGA | 0.00865 ± 0.005
20 | UAGACUGUCACGUUCACUGAGAGAUUAACA | 0.506 ± 0.028
21 | UAGUGACUGACCUUCUCUGUGAGAUUAACA | 0.055 ± 0.0077
22 | UACACUGUCACCUUCUCUGAGAGAUAAAGA | 0.0476 ± 0.015
23 | UAGUGACUCUCCUUCUCUGAGAGUUUAACA | 0.035 ± 0.007

Row | Sequence | pre-steady-state target cleavage rate
24 | AUCACUGUCACCUUCUCUGAGAGAUGAACA | 0.186 ± 0.03
25 | UAGUGUUGUCACCUUCUCUGAGAGAUUAACA | 0.629 ± 0.029
26 | UAGUCUGUCACCUUCUCUGAGAGUUUAACA | 0.365 ± 0.053
27 | UAGUCUGUCACCUUCUCUCAGUGAUUAACA | 0.00581 ± 0.0033
28 | UUCACUGUCACCUUCUCUGAGACAUUUACA | 0.067 ± 0.018
29 | UACACUGUCACCUUCUCUGAGAGAUCAACA | 0.26 ± 0.038
30 | UUCACUGUGACCUUCUCUGAGAGAUUAUGA | 0.119 ± 0.021
31 | UAGUCUGUCACCUUCUCUGUGACAUUAACA | 0.0475 ± 0.0087
32 | UACACUGUCACGUUCUCUGAGAGUUUAACA | 0.119 ± 0.017
33 | AUCACUGUCACCUUCUCUGUCAGAUAUUGA | 0.0149 ± 0.0076
34 | UAGACUGUCACGUUCUCUGAGAGAUAAACA | 0.19 ± 0.024
35 | UAGUGACAGUCUCUUCUCUGAGAGAUUAACA | 0.25 ± 0.034
36 | UAGUGUGUCACCAUCUCAGAGAGAUUAACA | 0.106 ± 0.011
37 | UAGUGACUCACCUUCACUGAGAGAUUUACA | 0.219 ± 0.038
38 | UAGUGACAGUGCCUUCUCUGAGAGAUUAACA | 0.356 ± 0.034
39 | UAGUGACAGACCUUCUCAGAGAGAUUAAGA | 0.00725 ± 0.0031
40 | UAGUGUGUCACCUUCACUGUGAGAUUAACA | 0.108 ± 0.0088
41 | UACACAGUCACCUUCUCUGAGAGUUUAACA | 0.515 ± 0.11
42 | UAGUCCGUCACCUUCUCUGAGAGAUUAACA | 0.662 ± 0.036
43 | UAGUGACAGUGCUUCUGUGAGAGAUUAUCA | 0.00492 ± 0.0043
44 | UAGUGACUCACCUUCUCUCAGAGAUUAACA | 0.0561 ± 0.0067
45 | UACACUGUCACCUCUCUCUGAGAGAUUAACA | 0.425 ± 0.029
46 | UAGUGACACACCUUCUCUGAGAGACUUAACA | 0.106 ± 0.017
